# From the supplement of paper PMC6531468
# The other results are listed elsewhere or left out. These are enrichments in a pooled selection; single values are uncertain. Scores sum up all selected molecules that hold the word; the word was not tested alone.
# Test system: IMP3 KH1-2
# Assay: 6-mer SELEX enrichment z-score vs GST control; IMP3 is the RNA-binding protein IGF2BP3; higher = more enriched by binding
# Conditions: construct: KH1-2 (164-376); SELEX round: R4
# Description: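 SELEX-seq with GST-tagged IMP3 KH1-2 (Pro164-Phe376) and an N40 RNA pool, round 4 (stringent 300/600 mM KCl washes). 6-mer z-score of sequence-tag enrichment normalised to the corresponding GST SELEX round; RNA k-mers written as DNA (T for U).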
# IMP3 KH1-2, sequence (chain, as listed by the source): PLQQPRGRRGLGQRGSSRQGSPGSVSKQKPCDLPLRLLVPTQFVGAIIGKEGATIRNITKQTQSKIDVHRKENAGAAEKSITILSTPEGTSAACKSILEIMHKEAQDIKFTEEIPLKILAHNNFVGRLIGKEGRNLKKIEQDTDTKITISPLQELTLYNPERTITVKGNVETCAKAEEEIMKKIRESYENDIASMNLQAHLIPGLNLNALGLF
row,Sequence,6-mer SELEX enrichment z-score
1,GCTTAC,0.241
2,GTGCGA,-0.355
3,CGAAGA,-0.861
4,CACAAA,1.03
5,TATACA,2.31
6,ACAATT,1.61
7,CGGGCA,-0.099
8,TCTAGC,-0.538
9,GCCTTG,-0.628
10,TACTGC,0.496
11,AGTGAA,-0.206
12,GTTTCA,-0.195
13,ACCCCT,-0.492
14,TGCTAT,0.493
15,TCGCAA,0.174
16,TTAGGG,0.379
17,TGGGTT,0.269
18,CGCAGC,-0.491
19,TCTTAA,0.119
20,AATCGA,-1.8

row,Sequence,6-mer SELEX enrichment z-score
1,GGTCTG,0.103
2,CCGGAC,-0.708
3,ATACCG,0.167
4,AAGATA,0.998
5,CCTAAG,-0.925
6,GCTATG,0.104
7,TTTTAT,1.12
8,AATAGG,0.75
9,ACAAAC,0.617
10,AAAAGG,-0.535
11,CTCACT,0.305
12,ATTTCG,0.002
13,ATACAA,2.67
14,GTATTC,-0.28
15,ACCCTC,-0.766
16,CATTAA,1.32
17,GCACTC,-0.308
18,TGAACT,0.109
19,AGTTCA,0.295
20,TTTCCT,0.99

# Test system: IMP3 KH3-4
# Assay: as above
# Conditions: construct: KH3-4 (377-579); SELEX round: R4
# Description: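 SELEX-seq with GST-tagged IMP3 KH3-4 (Pro377-Lys579) and an N40 RNA pool, round 4. 6-mer z-score of sequence-tag enrichment normalised to the corresponding GST SELEX round; RNA k-mers written as DNA (T for U).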
# IMP3 KH3-4, sequence (chain, as listed by the source): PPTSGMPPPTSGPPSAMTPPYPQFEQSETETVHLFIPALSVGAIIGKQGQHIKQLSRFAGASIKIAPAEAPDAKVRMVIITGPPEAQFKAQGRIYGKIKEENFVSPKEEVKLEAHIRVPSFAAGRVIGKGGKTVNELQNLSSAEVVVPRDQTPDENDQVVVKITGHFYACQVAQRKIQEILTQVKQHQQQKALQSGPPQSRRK
row,Sequence,6-mer SELEX enrichment z-score
1,GCTTAC,0.138
2,GTGCGA,-0.302
3,CGAAGA,-0.568
4,CACAAA,0.24
5,TATACA,2.49
6,ACAATT,1.95
7,CGGGCA,-0.08
8,TCTAGC,-0.469
9,GCCTTG,-0.628
10,TACTGC,0.102
11,AGTGAA,0.16
12,GTTTCA,-0.141
13,ACCCCT,-1.09
14,TGCTAT,0.548
15,TCGCAA,0.016
16,TTAGGG,0.65
17,TGGGTT,0.451
18,CGCAGC,-0.783
19,TCTTAA,0.29
20,AATCGA,-1.54

row,Sequence,6-mer SELEX enrichment z-score
1,GGTCTG,0.118
2,CCGGAC,-1.12
3,ATACCG,-0.211
4,AAGATA,2.05
5,CCTAAG,-0.969
6,GCTATG,0.315
7,TTTTAT,1.75
8,AATAGG,1.39
9,ACAAAC,-0.186
10,AAAAGG,0.426
11,CTCACT,-0.192
12,ATTTCG,0.149
13,ATACAA,2.64
14,GTATTC,-0.241
15,ACCCTC,-1.36
16,CATTAA,1.81
17,GCACTC,-0.572
18,TGAACT,0.311
19,AGTTCA,0.266
20,TTTCCT,0.669
